# Results: PubChem BioAssay AID463173 (ICCB-Longwood Screening Facility, Harvard Medical School, 2010)
# Screen size: about 52,000 compounds; about 4,300 (8.3%) were called active. No stated cut-off is given here; in the data, active means survival mostly below about 52% (no sharp cut-off); inactive means mostly above about 56%. The list shows a part of the results.
# Test system: DeltatarO mutant
# Assay: S. aureus survival, RN4220 and DeltatarO strains – OD600, teichoic acid synthesis inhibitors, primary screen (AID 463173)
# Details: S. aureus RN4220 wild type/DeltatarO growth, OD600, 18 h, stronger effect = lower value, screened at 18.75 µg/mL (by protocol)
row,SMILES,survival
1,CN1CC=C2C(C#N)=C(N)C(C#N)(C#N)C(Cc3ccccc3)C2C1 (stereo unspecified),inactive: 75%
2,COc1ccc(-c2noc(-c3ccc(N4CCOCC4)c([N+](=O)[O-])c3)n2)cc1OC,inactive: 52%
3,CCOCCCNC(=O)N1CCN(S(=O)(=O)c2ccc3c(ccn3C)c2)CC1,inactive: 112%
4,O=C(NCc1cccnc1)c1ccc(S(=O)(=O)N2CCCCC2)cc1,inactive: 97%
5,COc1ccccc1N1CCN(CCC(=O)Nc2cccc(F)c2)CC1,inactive: 48%
6,O=C(CSC1=Nc2ccccc2C2=NC(CCC(=O)NC3CCCCC3)C(=O)N12)Nc1cccc(Cl)c1 (stereo unspecified),inactive: 112%
7,CCOC(=O)C1CCC(CN(Cc2c(Cl)cccc2Cl)S(=O)(=O)c2ccc(F)c(C)c2)CC1 (stereo unspecified),inactive: 89%
8,Cc1cc(NC(=O)c2ccc(Cl)c(Cl)c2)ccc1-c1cc2ccccc2oc1=O,inactive: 66%
9,COc1ccc(NC(=O)Cn2c(=O)n(-c3ccccc3)c(=O)c3ccc(C(=O)NCc4ccc5c(c4)OCO5)cc32)cc1,inactive: 128%
10,CCCSc1ncc(Cl)c(C(=O)Nc2ccc(CC)cc2)n1,active: 42%
11,Oc1cccc(Nc2nc(-c3ccccc3)nc3ccccc23)c1,active: 10%
12,CC1(C)C(=O)N(CC(=O)Nc2ccc(OC(F)(F)F)cc2)c2ccccc21,inactive: 85%
13,Cc1ccc(CNC(=O)CSc2nc3ccsc3c(=O)n2-c2ccc(C(=O)O)cc2)cc1,inactive: 95%
14,CCN(CCCNC(=O)c1cc2cc3cc(OC)ccc3nc2s1)c1ccccc1,active: 53%
15,COc1ccccc1CNC(=O)c1nn(-c2ccc(C)cc2)c(=O)c2c1c1ccccc1n2C,inactive: 112%
16,COc1ccc(CCNC(=O)CSc2nc3ccccc3nc2Cc2ccc(C)cc2)cc1OC,active: 35%
17,Cc1cccc(CSc2ncc(Cl)c(C(=O)Nc3sc4c(c3C#N)CCCC4)n2)c1,inactive: 114%
18,CCN(CC)c1nc2c(S(=O)(=O)c3ccc(C)cc3)nnn2c2ccsc12,inactive: 75%
19,COc1ccccc1NC(=O)CSc1oc(-c2cccs2)nc1S(=O)(=O)c1ccc(C)cc1,inactive: 61%

row,SMILES,survival
1,O=C(NCc1ccccc1)c1cccc(NC(=O)N2CCSc3ncccc32)c1,inactive: 83%
2,COc1cc(C2NC(=O)N(C)C3=C2C(=O)N(c2ccccc2)C3)ccc1O (stereo unspecified),inactive: 77%
3,CCC(C)NC(=O)c1sc2nc(C)c(C(=O)Nc3ccc(C)cc3C)c(-c3ccc(Br)cc3)c2c1N (stereo unspecified),inactive: 78%
4,Cc1ccc2[nH]c(=O)c3cc(C(=O)N4CCN(c5ccccc5F)CC4)sc3c2c1,inactive: 88%
5,O=C(N/C(=C\c1ccco1)C(=O)N1CCCC1)c1ccccc1,inactive: 82%
6,O=C(CSc1nc(-c2ccccc2)cc(=O)[nH]1)Nc1ccccc1F,inactive: 89%
7,COc1ccc(-c2cnc(NCc3ccc(C)cc3)n2C)cc1,inactive: 121%
8,CC1=C(C(=O)Nc2ccc(C)c(C)c2)C2(CCCCCC2)OC1=O,inactive: 112%
9,CCOc1ccccc1CNC(=O)Cn1nc(C)c2nn(-c3ccc(Cl)cc3)c(C)c2c1=O,inactive: 101%
10,COC(=O)COc1ccc(Oc2nc(NC(C)(C)C)nc(N3CCOCC3)n2)nn1,inactive: 73%
11,COc1ccc(N2CCN(S(=O)(=O)c3c(C)nc4sc(C)cn4c3=O)CC2)cc1,inactive: 92%
12,CC1=C(c2ccc(C)c(C)c2)S(=O)(=O)N(Cc2ccc(C(=O)NCc3ccc(C)cc3)cc2)C1=O,inactive: 92%
13,COc1ccc(Cc2nc3c4cnn(-c5ccccc5Br)c4ncn3n2)cc1,inactive: 89%
14,Cc1cccc(OCC(=O)NCc2ccc3c(c2)CCN3C(=O)c2ccccc2)c1,inactive: 86%
15,CCn1ccc2cc(S(=O)(=O)N3CCC(C(=O)NCc4ccc(OC(C)C)cc4)CC3)ccc21,inactive: 95%
16,O=C(CN1C(=O)c2cccc3cccc1c23)NC1CCCC1,inactive: 87%
17,COc1ccc(-c2nc3ccc(C(=O)NCc4ccccc4)cc3nc2-c2ccc(OC)cc2)cc1,inactive: 90%
18,Cc1ccccc1NC(=O)c1ccccc1NC(=O)c1ccccc1F,inactive: 70%
19,CCCSc1nnc2c(n1)OC(CC)N(C(C)=O)c1ccccc1-2 (stereo unspecified),inactive: 62%

row,SMILES,survival
1,CSc1ccc(C2c3c(oc4ccc(F)cc4c3=O)C(=O)N2c2ccc(C)cn2)cc1 (stereo unspecified),inactive: 81%
2,CCOc1ccc2oc(=O)cc(CN3CCN(C(=O)c4ccc(Cl)cc4)CC3)c2c1,inactive: 86%
3,CCCCc1nn2c(=O)cc(COC(=O)CNC(=O)c3ccccc3C)nc2s1,inactive: 98%
4,Cc1c(NC(=O)c2cc3ccccc3o2)cccc1-c1nc2ccccc2o1,active: 36%
5,Cc1cccc(N(C)C(=O)C2CCN(S(=O)(=O)c3cccc4nonc34)CC2)c1,inactive: 80%
6,COc1ccc(OC)c(NC(=O)c2ccc(-c3nc(COc4ccccc4)c(C)o3)cc2)c1,inactive: 62%
7,Cc1ccc2nc(Nc3ccc(Br)cc3)nc(-c3ccccc3)c2c1,active: 35%
8,Cc1ccc(C(C)C)c(OCCSc2nc(-c3cccs3)nc3cc(=O)[nH]n23)c1,inactive: 73%
9,O=C(Cn1c(=O)oc2cc(S(=O)(=O)NCc3ccccc3)ccc21)NCc1ccc(F)cc1,inactive: 78%
10,COc1ccc(/C=C/C(=O)Nc2ccc(Cl)c(Cl)c2)cc1OC,active: 18%
11,CCOc1ccc(NC(=O)c2cc(CN3CCCC3)on2)cc1,inactive: 117%
12,Cc1c(C(=O)NCc2ccc(F)cc2)sc2nc3n(c(=O)c12)CCC3,inactive: 78%
13,CC(=O)Nc1ccc(NC(=O)Nc2sc3nc4n(c(=O)c3c2C)CCC(C)CC4)cc1 (stereo unspecified),inactive: 67%
14,COc1ccc(-c2ccc(=O)n(CC(=O)Nc3ccc(N(C)C)cc3)n2)cc1,inactive: 90%
15,O=C(Cn1nc(C(F)(F)F)c2c1CCCC2)Nc1ccc(F)c(Cl)c1,inactive: 62%
16,Cc1ccc(NC(=O)/C(C#N)=C/c2cn(CC(=O)NCc3ccco3)c3ccccc23)c(C)c1,inactive: 76%
17,CCC(=O)N1CCc2cc(CNS(=O)(=O)c3ccc(Cl)s3)ccc21,inactive: 93%
18,Cc1cccc(CN2C(=O)c3ccccc3Sc3ccc(C(=O)NCCc4ccccc4)cc32)c1,inactive: 91%
